Six molecules from publication PMC7668044, “Insights into bacterial cell division from a structure of EnvC bound to the FtsX periplasmic domain” (Proceedings of the National Academy of Sciences of the …, 2020) can be followed below.

These are yes or no findings as the source states them, for the method shown. For some of these results: In cells and extracts the contact can be indirect. Some entries that bind do so weakly or less than the wild type. Tags and fused reporters may be left off the sequences shown.

Experiment [1] has as its target T1, FtsA, bacterial two-hybrid fusion (UniProt P0ABH0).
T1 sequence: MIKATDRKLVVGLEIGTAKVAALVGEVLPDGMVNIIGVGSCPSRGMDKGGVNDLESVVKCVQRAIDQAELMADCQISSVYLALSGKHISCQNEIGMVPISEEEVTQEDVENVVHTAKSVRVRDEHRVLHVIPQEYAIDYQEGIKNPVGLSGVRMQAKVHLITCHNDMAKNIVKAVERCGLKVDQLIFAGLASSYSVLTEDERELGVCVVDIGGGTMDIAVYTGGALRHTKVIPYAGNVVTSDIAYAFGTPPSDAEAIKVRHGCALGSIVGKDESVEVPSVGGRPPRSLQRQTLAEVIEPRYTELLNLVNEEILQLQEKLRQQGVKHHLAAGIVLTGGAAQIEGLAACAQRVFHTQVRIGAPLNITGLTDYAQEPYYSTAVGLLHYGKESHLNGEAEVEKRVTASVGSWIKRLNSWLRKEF
The experiment can be described thus: two-hybrid; bacterial adenylate cyclase two hybrid (BACTH) system; E. coli BTH101 cells grown on IPTG/X-gal LB plates at room temperature; coloration followed over a time course.

The target of experiment [2] is T2, FtsE, wild type, bacterial two-hybrid fusion (E. coli) (UniProt P0A9R7).
T2 sequence: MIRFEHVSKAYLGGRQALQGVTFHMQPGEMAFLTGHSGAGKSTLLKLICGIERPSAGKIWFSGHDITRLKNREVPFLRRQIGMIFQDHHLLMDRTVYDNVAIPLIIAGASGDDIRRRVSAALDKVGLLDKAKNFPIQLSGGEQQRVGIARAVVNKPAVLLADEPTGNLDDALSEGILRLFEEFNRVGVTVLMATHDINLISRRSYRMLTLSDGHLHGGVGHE
The description is as above.

Experiment [3] has as its target T3, FtsX, wild type, bacterial two-hybrid fusion (Fig. 3B and 4E) (E. coli) (UniProt P0AC30).
T3 sequence: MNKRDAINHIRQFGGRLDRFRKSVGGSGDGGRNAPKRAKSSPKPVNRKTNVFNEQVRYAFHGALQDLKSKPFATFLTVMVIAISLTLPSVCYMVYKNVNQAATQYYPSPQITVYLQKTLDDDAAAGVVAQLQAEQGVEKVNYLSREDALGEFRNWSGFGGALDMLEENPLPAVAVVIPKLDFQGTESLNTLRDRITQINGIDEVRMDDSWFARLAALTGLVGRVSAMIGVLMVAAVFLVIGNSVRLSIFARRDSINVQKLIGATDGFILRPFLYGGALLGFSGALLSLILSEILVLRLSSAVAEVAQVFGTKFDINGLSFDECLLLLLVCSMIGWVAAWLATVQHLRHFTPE
Described as above.

The target in experiment [4] is T4, EnvC (35 to 419), bacterial two-hybrid fusion (E. coli) (UniProt P37690).
T4 sequence: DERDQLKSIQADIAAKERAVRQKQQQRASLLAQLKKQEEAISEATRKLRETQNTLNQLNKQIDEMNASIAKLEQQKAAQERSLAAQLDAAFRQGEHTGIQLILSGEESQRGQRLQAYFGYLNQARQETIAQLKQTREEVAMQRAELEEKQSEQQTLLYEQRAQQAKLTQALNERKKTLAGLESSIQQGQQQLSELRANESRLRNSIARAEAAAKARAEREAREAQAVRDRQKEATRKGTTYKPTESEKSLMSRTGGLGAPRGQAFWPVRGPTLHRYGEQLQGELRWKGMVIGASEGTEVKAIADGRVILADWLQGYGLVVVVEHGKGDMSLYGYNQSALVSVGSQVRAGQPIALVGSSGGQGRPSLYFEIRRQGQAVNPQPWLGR
The experiment is described as above.

For experiment [5], the target named is T5, EnvC LytM domain (residues 278 to 419), bacterial two-hybrid fusion (E. coli) (UniProt P37690).
T5 sequence: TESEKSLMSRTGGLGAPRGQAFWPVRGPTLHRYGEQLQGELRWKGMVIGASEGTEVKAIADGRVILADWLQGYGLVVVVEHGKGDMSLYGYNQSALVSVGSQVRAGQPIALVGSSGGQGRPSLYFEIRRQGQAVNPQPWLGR
Described as above.

In experiment [6] the target is T6, full-length NlpD (murein hydrolase activator), bacterial two-hybrid fusion (UniProt P0ADA3).
T6 sequence: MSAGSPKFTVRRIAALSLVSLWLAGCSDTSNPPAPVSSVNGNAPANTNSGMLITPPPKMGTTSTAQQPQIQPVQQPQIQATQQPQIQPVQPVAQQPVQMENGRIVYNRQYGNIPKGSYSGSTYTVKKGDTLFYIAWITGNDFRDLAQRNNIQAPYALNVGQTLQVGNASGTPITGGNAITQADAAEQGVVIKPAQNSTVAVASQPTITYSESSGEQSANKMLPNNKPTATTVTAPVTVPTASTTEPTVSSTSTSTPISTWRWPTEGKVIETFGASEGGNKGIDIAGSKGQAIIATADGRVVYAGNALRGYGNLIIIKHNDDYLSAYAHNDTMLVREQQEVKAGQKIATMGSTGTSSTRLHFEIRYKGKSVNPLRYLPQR
The experiment is described as above.

Experiment [7] addresses T7, mature EnvC (murein hydrolase activator), non-tagged, co-expressed for crystallisation (E. coli) (UniProt P37690).
T7 sequence: T4 sequence
The experiment can be described thus: crystal structure; X-ray, 2.1 Å, space group P2(1)2(1)2(1); His-tagged FtsX periplasmic domain and non-tagged EnvC coexpressed and copurified by Ni-IMAC; molecular replacement; both purified.

The target of experiment [8] is T8, His-tagged EnvC LytM domain (copurification) (E. coli) (UniProt P37690).
T8 sequence: T5 sequence
Briefly: pull-down; Ni-IMAC copurification; only the EnvC LytM domain is His-tagged; SDS gel of the copurified complexes.

In experiment [9] the target is T9, EnvC 222 to 419 (lacking the coiled coil domain, retaining the restraining arm), bacterial two-hybrid fusion (E. coli) (UniProt P37690).
T9 sequence: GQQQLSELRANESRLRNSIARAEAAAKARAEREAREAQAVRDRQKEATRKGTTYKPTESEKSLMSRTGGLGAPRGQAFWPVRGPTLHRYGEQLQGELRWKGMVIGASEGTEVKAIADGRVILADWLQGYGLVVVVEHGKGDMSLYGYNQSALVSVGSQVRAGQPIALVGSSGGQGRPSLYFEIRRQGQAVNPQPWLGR
The experiment can be described thus: two-hybrid; bacterial adenylate cyclase two hybrid (BACTH) system; E. coli BTH101 cells grown on IPTG/X-gal LB plates at room temperature; coloration followed over a time course.

B1: FtsX Δ145-171 variant, bacterial two-hybrid fusion (Fig. 3B) (protein, UniProt P0AC30)
chain: MNKRDAINHIRQFGGRLDRFRKSVGGSGDGGRNAPKRAKSSPKPVNRKTNVFNEQVRYAFHGALQDLKSKPFATFLTVMVIAISLTLPSVCYMVYKNVNQAATQYYPSPQITVYLQKTLDDDAAAGVVAQLQAEQGVEKVNYLSGGAVAVVIPKLDFQGTESLNTLRDRITQINGIDEVRMDDSWFARLAALTGLVGRVSAMIGVLMVAAVFLVIGNSVRLSIFARRDSINVQKLIGATDGFILRPFLYGGALLGFSGALLSLILSEILVLRLSSAVAEVAQVFGTKFDINGLSFDECLLLLLVCSMIGWVAAWLATVQHLRHFTPE
In the case of B1, the binding entry in experiment [1], in experiment [2] and in experiment [3] was “binds” throughout.

B2: AmiA, bacterial two-hybrid fusion (enzyme, UniProt P36548 1-289)
chain: MSTFKPLKTLTSRRQVLKAGLAALTLSGMSQAIAKDELLKTSNGHSKPKAKKSGGKRVVVLDPGHGGIDTGAIGRNGSKEKHVVLAIAKNVRSILRNHGIDARLTRSGDTFIPLYDRVEIAHKHGADLFMSIHADGFTNPKAAGASVFALSNRGASSAMAKYLSERENRADEVAGKKATDKDHLLQQVLFDLVQTDTIKNSLTLGSHILKKIKPVHKLHSRNTEQAAFVVLKSPSVPSVLVETSFITNPEEERLLGTAAFRQKIATAIAEGVISYFHWFDNQKAHSKKR
Take B2: the binding entry in experiment [4] is “no binding”; in [5] it was “binds”; in experiment [6], “no binding”.

B3: FtsX periplasmic domain, histidine-tagged, co-expressed for crystallisation (domain or fragment, E. coli)
chain: QITVYLQKTLDDDAAAGVVAQLQAEQGVEKVNYLSREDALGEFRNWSGFGGALDMLEENPLPAVAVVIPKLDFQGTESLNTLRDRITQINGIDEVRMDDS
notes: FtsX periplasmic domain (between the first and second transmembrane helix), E. coli; The two-hybrid construct of the same domain is residues 110 to 209; also called FtsX I; FtsX II; source: E. coli C43(DE3), coexpressed with non-tagged EnvC from a pETDuet1-based vector, copurified by Ni-IMAC
B3: in [7], the binding entry is “binds”.

B4: AmiB construct, not His-tagged (copurification) (enzyme, UniProt P26365 23-445)
chain: ATLSDIQVSNGNQQARITLSFIGDPDYAFSHQSKRTVALDIKQTGVIQGLPLLFSGNNLVKAIRSGTPKDAQTLRLVVDLTENGKTEAVKRQNGSNYTVVFTINADVPPPPPPPPVVAKRVETPAVVAPRVSEPARNPFKTESNRTTGVISSNTVTRPAARATANTGDKIIIAIDAGHGGQDPGAIGPGGTREKNVTIAIARKLRTLLNDDPMFKGVLTRDGDYFISVMGRSDVARKQNANFLVSIHADAAPNRSATGASVWVLSNRRANSEMASWLEQHEKQSELLGGAGDVLANSQSDPYLSQAVLDLQFGHSQRVGYDVATSMISQLQRIGEIHKRRPEHASLGVLRSPDIPSVLVETGFISNNSEERLLASDDYQQQLAEAIYKGLRNYFLAHPMQSAPQGATAQTASTVTTPDRTLPN
On to B4, for which the binding result in [8] is “binds”.

B5: AmiA construct, not His-tagged (copurification) (enzyme, UniProt P36548 35-289)
chain: KDELLKTSNGHSKPKAKKSGGKRVVVLDPGHGGIDTGAIGRNGSKEKHVVLAIAKNVRSILRNHGIDARLTRSGDTFIPLYDRVEIAHKHGADLFMSIHADGFTNPKAAGASVFALSNRGASSAMAKYLSERENRADEVAGKKATDKDHLLQQVLFDLVQTDTIKNSLTLGSHILKKIKPVHKLHSRNTEQAAFVVLKSPSVPSVLVETSFITNPEEERLLGTAAFRQKIATAIAEGVISYFHWFDNQKAHSKKR
In the case of B5, the binding result in [8] is given as “binds”.

B6: AmiB, bacterial two-hybrid fusion (enzyme, UniProt P26365 1-445)
chain: MMYRIRNWLVATLLLLCTPVGAATLSDIQVSNGNQQARITLSFIGDPDYAFSHQSKRTVALDIKQTGVIQGLPLLFSGNNLVKAIRSGTPKDAQTLRLVVDLTENGKTEAVKRQNGSNYTVVFTINADVPPPPPPPPVVAKRVETPAVVAPRVSEPARNPFKTESNRTTGVISSNTVTRPAARATANTGDKIIIAIDAGHGGQDPGAIGPGGTREKNVTIAIARKLRTLLNDDPMFKGVLTRDGDYFISVMGRSDVARKQNANFLVSIHADAAPNRSATGASVWVLSNRRANSEMASWLEQHEKQSELLGGAGDVLANSQSDPYLSQAVLDLQFGHSQRVGYDVATSMISQLQRIGEIHKRRPEHASLGVLRSPDIPSVLVETGFISNNSEERLLASDDYQQQLAEAIYKGLRNYFLAHPMQSAPQGATAQTASTVTTPDRTLPN
As for B6, the binding entry is listed as “no binding” in [4], “no binding” in experiment [9], “binds” in experiment [5] and “no binding” in [6].
